{
  "source": "PubChem BioAssay AID504333",
  "about": "(National Center for Advancing Translational Sciences (NCATS), 2011)",
  "note": "Screen size: about 360,000 compounds; about 16,000 (4.4%) were called active. Inconclusive results, whose numbers are uncertain, are shown with a selection of clear calls. Calls come from the whole dose curve; as a rule, active = well fitted inhibition curve with a large enough effect; inconclusive = small, poorly fitted or top-dose-only effect; inactive = no such curve, though single readings can be large or run the other way. Potencies beside an inconclusive call are fits to weak or partial responses and may not hold up. % is set by controls: 0 for no effect and ±100 for the full control effect; potency is the fitted concentration of half-maximal effect; tags give direction and shape of the fitted curve.",
  "data": [
    {"target": "Bromodomain adjacent to zinc finger domain protein 2B (Homo sapiens) (UniProt Q9UIF8)", "sequence (Q9UIF8 whole entry, looked up, the tested form may be a part)": "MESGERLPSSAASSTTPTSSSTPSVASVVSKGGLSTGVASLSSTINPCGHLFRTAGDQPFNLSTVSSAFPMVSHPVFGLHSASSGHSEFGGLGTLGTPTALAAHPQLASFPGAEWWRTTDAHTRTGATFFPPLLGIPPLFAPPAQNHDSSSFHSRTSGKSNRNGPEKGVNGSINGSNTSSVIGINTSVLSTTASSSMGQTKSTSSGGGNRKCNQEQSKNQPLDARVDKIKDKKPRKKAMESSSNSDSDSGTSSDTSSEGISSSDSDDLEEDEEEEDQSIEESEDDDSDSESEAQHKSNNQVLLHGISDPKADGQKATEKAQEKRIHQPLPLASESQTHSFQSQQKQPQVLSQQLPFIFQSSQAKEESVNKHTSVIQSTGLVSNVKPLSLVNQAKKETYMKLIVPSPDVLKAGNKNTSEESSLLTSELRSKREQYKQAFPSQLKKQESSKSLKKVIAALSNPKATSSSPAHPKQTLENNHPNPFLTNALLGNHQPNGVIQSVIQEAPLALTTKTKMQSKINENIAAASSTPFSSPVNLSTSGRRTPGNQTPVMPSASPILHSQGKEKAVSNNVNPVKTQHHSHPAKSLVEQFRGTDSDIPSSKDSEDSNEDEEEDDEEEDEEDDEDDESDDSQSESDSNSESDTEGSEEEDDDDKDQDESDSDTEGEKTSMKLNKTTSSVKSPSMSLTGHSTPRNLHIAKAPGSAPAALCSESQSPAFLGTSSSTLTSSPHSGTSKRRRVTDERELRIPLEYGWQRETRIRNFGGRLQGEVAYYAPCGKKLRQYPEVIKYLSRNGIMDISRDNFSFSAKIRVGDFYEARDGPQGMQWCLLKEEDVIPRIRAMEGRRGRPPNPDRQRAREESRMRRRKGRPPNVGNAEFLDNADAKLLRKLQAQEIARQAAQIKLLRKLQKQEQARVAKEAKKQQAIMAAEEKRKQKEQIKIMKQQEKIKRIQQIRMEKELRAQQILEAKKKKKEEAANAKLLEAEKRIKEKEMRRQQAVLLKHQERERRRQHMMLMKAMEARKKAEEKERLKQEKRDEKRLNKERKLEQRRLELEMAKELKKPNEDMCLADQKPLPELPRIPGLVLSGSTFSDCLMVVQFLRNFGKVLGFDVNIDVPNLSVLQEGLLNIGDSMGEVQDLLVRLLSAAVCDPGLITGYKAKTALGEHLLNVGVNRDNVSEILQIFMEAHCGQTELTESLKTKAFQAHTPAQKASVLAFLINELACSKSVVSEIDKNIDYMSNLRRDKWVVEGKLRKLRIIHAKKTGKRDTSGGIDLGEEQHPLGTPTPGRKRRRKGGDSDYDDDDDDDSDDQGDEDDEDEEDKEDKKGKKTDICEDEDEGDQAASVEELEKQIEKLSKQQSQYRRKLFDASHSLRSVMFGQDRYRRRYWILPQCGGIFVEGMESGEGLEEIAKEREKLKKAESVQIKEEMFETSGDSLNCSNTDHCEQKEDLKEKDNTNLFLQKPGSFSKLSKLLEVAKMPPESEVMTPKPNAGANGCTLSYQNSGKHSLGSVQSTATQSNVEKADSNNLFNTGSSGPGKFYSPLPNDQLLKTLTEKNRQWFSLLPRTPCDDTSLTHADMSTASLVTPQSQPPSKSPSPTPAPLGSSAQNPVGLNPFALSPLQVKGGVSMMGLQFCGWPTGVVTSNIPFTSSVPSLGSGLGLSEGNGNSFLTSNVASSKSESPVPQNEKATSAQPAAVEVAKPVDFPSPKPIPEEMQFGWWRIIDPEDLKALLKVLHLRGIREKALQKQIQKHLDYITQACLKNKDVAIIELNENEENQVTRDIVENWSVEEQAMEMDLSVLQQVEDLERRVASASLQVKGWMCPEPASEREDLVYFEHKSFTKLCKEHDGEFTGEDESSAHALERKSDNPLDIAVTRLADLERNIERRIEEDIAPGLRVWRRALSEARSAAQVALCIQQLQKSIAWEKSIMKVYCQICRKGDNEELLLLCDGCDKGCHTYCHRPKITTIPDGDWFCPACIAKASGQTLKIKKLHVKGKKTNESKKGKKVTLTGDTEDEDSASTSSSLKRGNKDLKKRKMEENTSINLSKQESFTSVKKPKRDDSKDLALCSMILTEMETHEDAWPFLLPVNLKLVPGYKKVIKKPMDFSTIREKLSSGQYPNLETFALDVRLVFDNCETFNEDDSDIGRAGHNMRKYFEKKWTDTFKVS", "assay": "qHTS Assay for Inhibitors of BAZ2B; note: nearly all actives have a fitted effect of over 60% in size", "details": "AlphaScreen BAZ2B-H3K14Ac peptide displacement; activity change, negative = inhibition: at 114 µM (top of the series)", "how_it_was_run": "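In this displacement format the biotinylated H3(5-23) peptide acetylated at Lys14 serves as ligand at 50 nM, with BAZ2B at 50 nM in PBS pH 7.4 containing 0.01% Tween-20. Donor and acceptor beads are 10 ug/mL final.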", "values": [
      {"compound": "Clc1ccc2[nH]c3c(c2c1)CCc1cn[nH]c1-3", "Potency": "inconclusive: 50.1 µM [inhibitor, partial curve]"},
      {"compound": "O=C1c2ccccc2C(=O)N1/N=C/c1ccc(O)c(O)c1", "Potency": "inconclusive: 89.1 µM [inhibitor, single point]"},
      {"compound": "CCCCCCSc1cc(-c2nc3ccc(Cl)cn3c2NCCCC)ccc1OC", "Potency": "inconclusive: 89.1 µM [inhibitor, single point]"},
      {"compound": "CCN1C(=O)[C@H]2[C@@H](c3ccc(-c4cccc(Cl)c4)c(OC)c3)N[C@@](Cc3ccccc3)(C(=O)OC)[C@H]2C1=O", "Potency": "inconclusive: 56.2 µM [inhibitor, partial curve]"},
      {"compound": "CCc1ccc(CNC(=O)C2CC(=O)N(C3CCCC3)C2)cc1", "note": "(stereo not drawn)", "activity change, negative = inhibition": "inactive: 26.7% [at 57.1 µM]"},
      {"compound": "Cc1ccc(/C=N/NC(=S)NC2CCCCC2)o1", "Potency": "inconclusive: 39.8 µM [inhibitor, partial curve]"},
      {"compound": "O=C(COc1ccc(Cl)cc1[N+](=O)[O-])N1CCCCC1", "Potency": "inconclusive: 56.2 µM [inhibitor, partial curve]"},
      {"compound": "Cc1ccc(C(=O)NC(=S)Nc2ccccc2C(F)(F)F)cc1C", "Potency": "inconclusive: 89.1 µM [inhibitor, single point]"},
      {"compound": "Cc1ccc2c(c1)N(C(=O)c1ccco1)C(C)(C)c1ssc(=S)c1-2", "Potency": "active: 10 µM"},
      {"compound": "CCOC(=O)Cc1[nH]nc2c1C(c1ccsc1)C(C#N)=C(N)O2", "note": "(stereo not drawn)", "activity change, negative = inhibition": "inactive: -4.08%"},
      {"compound": "N#C/C(=C\\c1ccccc1C(F)(F)F)C(=O)Nc1ccccc1F", "activity change, negative = inhibition": "inactive: 6.18%"},
      {"compound": "O=C(Nc1cccc(-c2cn3ccccc3n2)c1)c1cccs1", "Potency": "inconclusive: 50.1 µM [inhibitor, partial curve]"},
      {"compound": "COc1ccc(-c2nc(-c3ccccc3)nc(N3CCN(C)CC3)c2C#N)cc1", "Potency": "inconclusive: 35.5 µM [inhibitor, full curve]"},
      {"compound": "NC(=O)[C@H]1CC2(CC(c3cccc(NC(=O)COc4ccc(Cl)cc4)c3)=NO2)CN1C(=O)Cc1ccc([N+](=O)[O-])cc1", "note": "(stereo partly drawn)", "Potency": "inconclusive: 79.4 µM [inhibitor, single point]"},
      {"compound": "Cc1cc(C)c2cc(CN(CCN3CCCC3)C(=O)Nc3ccc(F)cc3)c(=O)[nH]c2c1", "activity change, negative = inhibition": "inactive: -30%"},
      {"compound": "CN1CCN(c2ccccc2NC(=O)c2ccc(-c3ccc(Cl)cc3Cl)o2)CC1", "Potency": "inconclusive: 89.1 µM [inhibitor, single point]"},
      {"compound": "CC(C)CNC(=O)NC(=O)COc1ccc(C=O)cc1", "Potency": "inconclusive: 89.1 µM [inhibitor, single point]"},
      {"compound": "COc1ccc(CC(=O)Nc2cc(NC(=O)Cc3ccc(OC)c(OC)c3)cc(C(=O)O)c2)cc1OC", "Potency": "inconclusive: 89.1 µM [inhibitor, single point]"}
    ]}
  ]
}
